Assay results as given in paper PMC10121561, “Control of a hippocampal recurrent excitatory circuit by cannabinoid receptor-interacting protein Gap43” (Nature Communications, 2023).
Numbering of substitutions follows the chain as printed. Names and notes keep the numbering of the source. These are yes or no findings as the source states them, for the method shown. In cells and extracts the contact can be indirect. Some entries that bind do so weakly or less than the wild type.

By UniProt entry, the sequences of proteins in these tests, tags left out.
UniProt P21554: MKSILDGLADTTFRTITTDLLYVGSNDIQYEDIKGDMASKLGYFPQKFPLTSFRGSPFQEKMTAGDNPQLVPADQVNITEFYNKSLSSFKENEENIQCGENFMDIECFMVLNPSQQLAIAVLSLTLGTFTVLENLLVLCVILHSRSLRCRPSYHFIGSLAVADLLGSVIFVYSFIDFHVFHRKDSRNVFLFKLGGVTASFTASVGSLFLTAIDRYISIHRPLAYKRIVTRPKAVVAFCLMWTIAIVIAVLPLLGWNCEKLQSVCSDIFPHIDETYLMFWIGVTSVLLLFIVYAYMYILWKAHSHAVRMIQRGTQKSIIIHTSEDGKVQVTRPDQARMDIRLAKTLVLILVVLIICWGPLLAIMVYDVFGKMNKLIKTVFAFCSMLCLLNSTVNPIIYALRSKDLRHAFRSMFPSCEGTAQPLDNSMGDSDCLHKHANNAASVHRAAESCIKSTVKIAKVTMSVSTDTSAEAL
UniProt P06837: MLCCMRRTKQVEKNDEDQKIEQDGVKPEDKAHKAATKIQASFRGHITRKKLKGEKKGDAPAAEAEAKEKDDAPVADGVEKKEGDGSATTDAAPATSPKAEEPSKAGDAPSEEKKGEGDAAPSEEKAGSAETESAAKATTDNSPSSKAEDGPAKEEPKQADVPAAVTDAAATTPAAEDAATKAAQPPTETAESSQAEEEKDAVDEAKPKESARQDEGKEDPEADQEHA
UniProt P47746: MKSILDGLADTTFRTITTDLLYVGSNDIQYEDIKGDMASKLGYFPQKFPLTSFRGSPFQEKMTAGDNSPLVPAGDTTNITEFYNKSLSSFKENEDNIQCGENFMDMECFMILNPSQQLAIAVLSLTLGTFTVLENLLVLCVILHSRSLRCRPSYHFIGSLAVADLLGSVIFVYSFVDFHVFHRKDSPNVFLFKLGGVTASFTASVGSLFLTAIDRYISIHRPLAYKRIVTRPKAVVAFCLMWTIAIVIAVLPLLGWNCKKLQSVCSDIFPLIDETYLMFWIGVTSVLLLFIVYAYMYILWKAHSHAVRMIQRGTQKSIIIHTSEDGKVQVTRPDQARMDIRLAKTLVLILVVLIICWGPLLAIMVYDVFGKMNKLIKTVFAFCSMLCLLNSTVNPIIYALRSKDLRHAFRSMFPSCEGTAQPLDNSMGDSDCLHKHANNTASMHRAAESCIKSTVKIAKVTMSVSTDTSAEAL

Legend:
RLuc-tagged CB1R = target: T1, RLuc-tagged CB1R (UniProt P21554 1-472); assay: FRET or BRET; BRET saturation in live HEK293T cells expressing CB1R-RLuc and increasing amounts of GFP-GAP43 forms; 3 independent experiments
T1 construct: type-1 cannabinoid receptor (CB1R); also called CB1R-RLuc; source: HEK293T, transfected, in live cells

[1] = target: growth-associated protein of 43 kDa (GAP43), endogenous mouse (mouse (endogenous in mouse hippocampus)) (UniProt P06837); assay: proximity ligation; in situ PLA for CB1R and GAP43 in hippocampal synaptosomes from WT mice, Cnr1-/- mice as control
[2] = target: growth-associated protein of 43 kDa (GAP43), endogenous mouse (mouse (endogenous in mouse hippocampus)) (UniProt P06837); assay: co-IP; endogenous proteins in primary mouse hippocampal neurons and in mouse whole-hippocampus extracts; IP with anti-GAP43 antibody or control IgG
[3] = target: growth-associated protein of 43 kDa (GAP43), endogenous mouse (mouse (endogenous in mouse hippocampus)) (UniProt P06837); assay: proximity ligation; PLA in hippocampal sections (DG inner molecular layer) of 3-month-old mice of different Cnr1 genotypes (knockout and rescue lines)
myc-tagged CB1R = myc-tagged CB1R (UniProt P21554); assay: proximity ligation; PLA with anti-c-myc and anti-GFP antibodies in HEK293T cells transfected with CB1R-myc plus GFP-GAP43 forms; dots per GFP-transfected cell
HA-tagged CB1R = HA-tagged CB1R (UniProt P21554); assay: co-IP; HEK293T cells co-transfected with HA-CB1R and GAP43 forms; IP with anti-HA antibody, blot with anti-pan-GAP43 antibody

Molecule: GFP-GAP43(S41A) (from UniProt P17677 1-238)
- binding (RLuc-tagged CB1R): no binding

Molecule: type-1 cannabinoid receptor (CB1R), endogenous mouse (from UniProt P47746 1-473)
- binding [1]: binds
- binding [2]: binds
- binding [3]: binds

B1: GFP-GAP43(WT) (natural protein, UniProt P17677 1-238, looked up)
chain: MLCCMRRTKQVEKNDDDQKIEQDGIKPEDKAHKAATKIQASFRGHITRKKLKGEKKDDVQAAEAEANKKDEAPVADGVEKKGEGTTTAEAAPATGSKPDEPGKAGETPSEEKKGEGDAATEQAAPQAPASSEEKAGSAETESATKASTDNSPSSKAEDAPAKEEPKQADVPAAVTAAAATTPAAEDAAAKATAQPPTETGESSQAEENIEAVDETKPKESARQDEGKEEEPEADQEHA
notes: growth-associated protein of 43 kDa (GAP43), wild type; In the co-IP and DMR experiments the text writes GAP43(WT) without GFP; source: HEK293T, transfected, in cells or lysate
- binding (myc-tagged CB1R): binds

B2: GFP-GAP43(S41D) (natural protein, UniProt P17677 1-238, looked up)
chain: B1 chain with S41D
notes: growth-associated protein of 43 kDa (GAP43) with the phospho-mimetic point mutation S41D; In the co-IP and DMR experiments the text writes GAP43(S41D) without GFP; also called phospho-mimetic GAP43; source: HEK293T, transfected, in cells or lysate
- binding (HA-tagged CB1R): binds
- binding (myc-tagged CB1R): binds
